Assay results: PubChem BioAssay AID485294 (National Center for Advancing Translational Sciences (NCATS), 2010)
About 150 (0.041%) of roughly 370,000 compounds were called active. This list was built around the results that the source calls inconclusive (neither active nor inactive); the mix of calls is not that of the screen. Calls come from the whole dose curve; as a rule, active = well fitted inhibition curve with a large enough effect; inconclusive = small, poorly fitted or top-dose-only effect; inactive = flat fitted curve, though single readings scatter. Potencies of inconclusive entries are left out as doubtful fits.

target: Beta-lactamase (Escherichia coli (strain K12)) (UniProt P00811); experiment: qHTS Inhibitors of AmpC Beta-Lactamase (assay with detergent); conditions: AmpC hydrolysis of nitrocefin, absorbance 480 nm, 0.01% Triton; series mostly up to 114 µM; note: nearly all actives have a fitted effect of over 25% in size
How it was run: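 AmpC (5.3 nM in the dispensed reagent) in 20 mM phosphate pH 7.0 with 0.01% (detergent screen) or 0.0001% Triton X-100 was preincubated with compounds for 15 min at room temperature. Nitrocefin was then added from an 800 uM solution, and hydrolysis was followed at 480 nm.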
Potency is the fitted concentration of half-maximal effect; tags give direction and shape of the fitted curve.

UniProt P00811, sequence (P00811 whole entry, looked up): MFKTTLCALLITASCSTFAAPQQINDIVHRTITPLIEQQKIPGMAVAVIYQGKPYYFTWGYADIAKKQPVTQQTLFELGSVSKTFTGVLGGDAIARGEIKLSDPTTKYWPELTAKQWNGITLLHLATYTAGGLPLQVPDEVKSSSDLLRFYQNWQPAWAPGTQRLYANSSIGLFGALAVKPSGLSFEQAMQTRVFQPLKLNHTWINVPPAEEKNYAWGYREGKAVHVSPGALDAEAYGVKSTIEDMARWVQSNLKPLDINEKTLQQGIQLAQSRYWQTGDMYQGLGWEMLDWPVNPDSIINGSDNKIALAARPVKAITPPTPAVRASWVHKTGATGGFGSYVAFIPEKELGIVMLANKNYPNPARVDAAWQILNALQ

Structure (SMILES) | Potency
Cc1ccc2c(c1)-c1c(cnn1CC(=O)Nc1ccccc1N1CCN(C)CC1)CO2 | inactive
CCn1c(SCCOc2ccc(OC)cc2)nnc1C(CO)NC(=O)c1ccc(OC)cc1 (stereo not drawn) | inconclusive [inhibitor, full curve, poor fit]
COc1cc2c(cc1OC)C(c1ccco1)CC(=O)N2 (stereo not drawn) | inconclusive [inhibitor, full curve, poor fit]
O=C(Nc1ccc(S(=O)(=O)N2CCCC2)cc1)C1CCN(S(=O)(=O)c2ccc(F)cc2)CC1 | inconclusive [inhibitor, full curve]
O=C(NCC1CCCO1)c1cccc(C(=O)NCC2CCCO2)c1 (stereo not drawn) | inconclusive [inhibitor, full curve]
N#Cc1c(NC(=O)C2CC(c3c(F)cccc3Cl)=NO2)sc2c1CCC2 (stereo not drawn) | inactive
Cc1ccc(-c2nnc(SCC(=O)N3CCCc4ccccc43)n2N)cc1 | inconclusive [inhibitor, partial curve, poor fit]
O=C(NCCCCc1ccccc1)c1ccccc1Cl | inconclusive [inhibitor, single point]
COc1ccccc1NC(=O)c1nnn(Cc2ccccc2)c1NC(=O)C(F)(F)F | inactive
O=C1C(c2ccccc2)=C(N2CC2)c2ccccc21 | inconclusive [inhibitor, full curve, poor fit]
CCCc1nn(C)c(C(=O)Nc2ccccc2)c1Cl | inconclusive [inhibitor, partial curve, poor fit]
COc1cccc2oc3ccc(C#CC4(N)CCCCC4)cc3c(=O)c12 | inconclusive [inhibitor, full curve, poor fit]
COCCNC(=O)C(c1ccccc1)N(CCOC)C(=O)Cn1nnc2ccccc21 (stereo not drawn) | inconclusive [inhibitor, full curve]
O=C(COC(=O)c1cccs1)Nc1cccc(S(=O)(=O)N2CCOCC2)c1 | inconclusive [inhibitor, full curve]
O=C(Nc1ccccc1)c1ccc(F)c(S(=O)(=O)N2CCOCC2)c1 | inconclusive [inhibitor, full curve, poor fit]
CCn1c(SCC(=O)Nc2cccc(F)c2)nc2c(c1=O)SC(C)C2 (stereo not drawn) | inconclusive [inhibitor, full curve]
CCc1cccc(C)c1NC(=O)CSc1nnc(Cc2csc(C)n2)o1 | inconclusive [inhibitor, partial curve]
O=C(Nc1ccc2c(c1)nc1n2CCOC1)c1ccccc1 | inconclusive [inhibitor, full curve, poor fit]
